Measured values as given in PubChem BioAssay AID540317 (National Center for Advancing Translational Sciences (NCATS), 2011).
Out of some 390,000 compounds screened, about 2,200 (0.56%) were called active. Inconclusive results, whose numbers are uncertain, are shown with a selection of clear calls. Calls follow the shape of the dose curve; as a rule, active = well fitted inhibition curve with a large enough effect; inconclusive = small, poorly fitted or top-dose-only effect; inactive = no such curve, though single readings can be large or run the other way. Potencies of inconclusive entries are doubtful fits and often do not repeat.

What follows are compounds tested against Chromobox protein homolog 1 (Homo sapiens) (UniProt P83916) (assay: HTS for Inhibitors of HP1-beta Chromodomain Interactions with Methylated Histone Tails). Settings: AlphaScreen HP1-beta / biotin-H3K9me3 peptide binding; series mostly up to 114 µM; activity change, negative = inhibition: at the top concentration.
In short: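 AlphaScreen: HP1-beta (50 nM) preformed 30 min with biotin-H3(1-18)K9me3 peptide (50 nM) in PBS pH 7.4, 0.01% Tween-20. Compound added for 30 min at RT, then streptavidin donor/nickel chelate acceptor beads (10 ug/mL) for 30 min.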
Also: nearly all actives have a fitted effect of over 70% in size.
Potency is read from the fitted curve at half-maximal effect; tags tell the direction and shape of the fitted curve.

Sequence of UniProt P83916 (P83916 whole entry, looked up): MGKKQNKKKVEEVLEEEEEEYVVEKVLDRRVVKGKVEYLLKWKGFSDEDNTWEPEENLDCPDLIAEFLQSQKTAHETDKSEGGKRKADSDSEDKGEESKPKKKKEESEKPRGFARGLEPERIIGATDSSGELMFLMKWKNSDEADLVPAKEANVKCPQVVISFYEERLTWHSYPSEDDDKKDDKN

Compound | Potency | activity change, negative = inhibition
Cc1cc(C(=O)CSc2nc(N)cc(N)n2)c(C)n1CCc1ccc(F)cc1 | inconclusive: 20 µM [inhibitor, partial curve, poor fit] | –
OC(CNCCc1ccc(C(F)(F)F)cc1)COC(c1ccccc1)c1ccccc1 (stereo unspecified) | inconclusive: 44.7 µM [inhibitor, partial curve, poor fit] | –
CC(Oc1ccccc1)C(=O)Nc1nc2ccc(S(N)(=O)=O)cc2s1 (stereo unspecified) | – | inactive: 28.4% [at 57 µM]
COCC(C)n1c(C)cc(C(=O)CSc2nnc(-c3ccco3)o2)c1C (stereo unspecified) | inconclusive: 89.1 µM [inhibitor, partial curve, poor fit] | –
O=[N+]([O-])c1ccccc1OCCCn1cnc2ccccc21 | inconclusive: 56.2 µM [inhibitor, partial curve, poor fit] | –
COc1ccc(N=C2S/C(=C\c3ccc(OC(C)C(=O)O)c(OC)c3)C(=O)N2CCc2c[nH]c3ccccc23)cc1 (stereo unspecified) | inconclusive: 50.1 µM [inhibitor, partial curve, poor fit] | –
Cc1[nH]c2ccccc2c1C(c1ccncc1)N1CCN(c2ccccn2)CC1 (stereo unspecified) | inconclusive: 70.8 µM [inhibitor, partial curve] | –
CNC(=S)N(C1=NCC(c2ccc([N+](=O)[O-])cc2)S1)c1ccccc1 (stereo unspecified) | inconclusive: 35.5 µM [inhibitor, partial curve] | –
CCOc1ccc(-n2c(C)cc(C(=O)CCl)c2C)cc1 | inconclusive: 70.8 µM [inhibitor, partial curve] | –
Cc1ccc(N/N=C(\C#N)C(=N)N2CCCCCC2)cc1 | – | inactive: 23.8%
CCOc1ccccc1OCCCNCc1ccccc1 | inconclusive: 56.2 µM [inhibitor, single point] | –
CCOC(=O)c1sc(NC(=O)CCN2CCN(CC)CC2)c(C(=O)OCC)c1C | – | inactive: 15.5%
COc1ccc(NC(=O)c2cc3ccccc3cc2OC)cc1 | inconclusive: 56.2 µM [inhibitor, single point] | –
COC(=O)C1CCN(c2c([N+](=O)[O-])cc(C(F)(F)F)cc2[N+](=O)[O-])CC1 | inconclusive: 28.2 µM [inhibitor, partial curve] | –
CC1CCCN(C(=O)Cn2nnc(-c3ccc(S(C)(=O)=O)cc3)n2)C1 (stereo unspecified) | – | inactive: 31.7%
Cc1ccc2cc(CN(CC3CCCO3)C(=S)NCc3ccco3)c(=O)[nH]c2c1C (stereo unspecified) | inconclusive: 44.7 µM [inhibitor, partial curve] | –
O=S1(=O)NC[C@]23C[C@H](c4ccc(F)cc4)[C@@H](C[C@@H]21)O3 | – | inactive: 16%
COc1cc(/C=C(\C#N)c2[nH]nc(N)c2C#N)cc(OC)c1O | inconclusive: 35.5 µM [inhibitor, single point] | –
Clc1ccc(-c2csc(=Nc3cccnc3)n2CCCn2ccnc2)cc1Cl | inconclusive: 35.5 µM [inhibitor, partial curve] | –
CC(C)Oc1ccc(OCCn2c(=S)[nH]c3c(N)ncnc32)cc1 | inconclusive: 11.2 µM [inhibitor, full curve, poor fit] | –
Cc1ccc(N=Nc2ccc(O)c3ncccc23)cc1 | inconclusive: 39.8 µM [inhibitor, single point] | –

Compound | Potency | activity change, negative = inhibition
CN(C)c1ccc(/C=N/N=C(N)N)cc1[N+](=O)[O-] | inconclusive: 79.4 µM [inhibitor, partial curve] | –
O=C1OC(Nc2ccc3c(c2)OCO3)c2ccccc21 (stereo unspecified) | inconclusive: 44.7 µM [inhibitor, partial curve, poor fit] | –
Cc1nn(CC(=O)NCc2cccc(F)c2)c(=O)c2cccn12 | inconclusive: 39.8 µM [inhibitor, partial curve] | –
Cc1ccc(C)c(S(=O)(=O)Nc2ccc(O)c(C(=O)O)c2)c1 | inconclusive: 39.8 µM [inhibitor, single point] | –
CC1(C)CC(=O)C2=C(C1)N=C1c3ccccc3C(=O)C1C2c1ccc(Cl)cc1 (stereo unspecified) | inconclusive: 4.47 µM [inhibitor, full curve, poor fit] | –
Cc1ccc(Nc2nnc(SCC(=O)c3ccc(O)cc3O)s2)cc1 | – | inactive: -8.95%
O=C1/C(=C/Nc2cccc([N+](=O)[O-])c2)CCc2ccccc21 | inconclusive: 50.1 µM [inhibitor, single point] | –
CN(C(=O)COC(=O)c1ccc2[nH]c3c(c2c1)CCCC3)C1CCS(=O)(=O)C1 (stereo unspecified) | inconclusive: 70.8 µM [inhibitor, partial curve] | –
Oc1ccc(/C=N/Nc2ccc(Cl)nn2)c(O)c1O | inconclusive: 6.31 µM [inhibitor, partial curve, poor fit] | –
CC(C)c1ccc(OCCCCN2CCCCC2)cc1 | inconclusive: 56.2 µM [inhibitor, partial curve, poor fit] | –
CCCC(C(=O)NC(C)(C)CC)N(Cc1ccco1)C(=O)CNS(=O)(=O)c1ccccc1 (stereo unspecified) | – | inactive: 1.72%
Cn1cc(C(=O)NCc2cccs2)c(=O)c2cc(S(=O)(=O)N3CCCC3)ccc21 | inconclusive: 89.1 µM [inhibitor, single point] | –
CCOc1cc(/C=N/NC(=O)Nc2ccccc2)ccc1O | – | inactive: 20.3%
COc1ccc(-c2csc(NCc3ccco3)n2)cc1C | inconclusive: 2.24 µM [inhibitor, full curve, poor fit] | –
Cc1nc(N)sc1-c1csc(Nc2ccc(Cl)cn2)n1 | inconclusive: 50.1 µM [inhibitor, partial curve] | –
Clc1ccc2nc(-c3ccccn3)c(Nc3ccc4c(c3)OCO4)n2c1 | inconclusive: 39.8 µM [inhibitor, partial curve] | –
COc1ccccc1CN=Cc1[nH]c2ccc(Br)c(Cl)c2c1O | inconclusive: 1.26 µM [inhibitor, partial curve, poor fit] | –
O=C1NC[C@@H](c2ccccc2)OC(=O)[C@H](Cc2ccc(F)cc2)C/C=C\C[C@@H]1CC(=O)N(CCO)Cc1ccccc1 | – | inactive: 22.3%
Cc1ccn2c(Nc3ccccc3C)c(-c3ccccn3)nc2c1 | inconclusive: 50.1 µM [inhibitor, partial curve, poor fit] | –
Cc1cc(C)c(CSc2nnc(C)n3c2cc2occc23)c(C)c1 | inconclusive: 28.2 µM [inhibitor, partial curve] | –
